Test results taken from PubChem BioAssay AID1347165 (National Center for Advancing Translational Sciences (NCATS), 2019).
About 5,700 (2.6%) of roughly 220,000 compounds were called active. The inconclusive results got no clear call from the source; some entries with a clear call stand among them for comparison. Calls follow the shape of the dose curve; as a rule, active = well fitted inhibition curve with a large enough effect; inconclusive = small, poorly fitted or top-dose-only effect; inactive = no such curve, though single readings can be large or run the other way. Potencies of inconclusive entries are doubtful fits and often do not repeat.

Biological target: Lysine-specific demethylase 5B (Homo sapiens) (UniProt Q9UGL1)
UniProt Q9UGL1, sequence (Q9UGL1 whole entry, looked up): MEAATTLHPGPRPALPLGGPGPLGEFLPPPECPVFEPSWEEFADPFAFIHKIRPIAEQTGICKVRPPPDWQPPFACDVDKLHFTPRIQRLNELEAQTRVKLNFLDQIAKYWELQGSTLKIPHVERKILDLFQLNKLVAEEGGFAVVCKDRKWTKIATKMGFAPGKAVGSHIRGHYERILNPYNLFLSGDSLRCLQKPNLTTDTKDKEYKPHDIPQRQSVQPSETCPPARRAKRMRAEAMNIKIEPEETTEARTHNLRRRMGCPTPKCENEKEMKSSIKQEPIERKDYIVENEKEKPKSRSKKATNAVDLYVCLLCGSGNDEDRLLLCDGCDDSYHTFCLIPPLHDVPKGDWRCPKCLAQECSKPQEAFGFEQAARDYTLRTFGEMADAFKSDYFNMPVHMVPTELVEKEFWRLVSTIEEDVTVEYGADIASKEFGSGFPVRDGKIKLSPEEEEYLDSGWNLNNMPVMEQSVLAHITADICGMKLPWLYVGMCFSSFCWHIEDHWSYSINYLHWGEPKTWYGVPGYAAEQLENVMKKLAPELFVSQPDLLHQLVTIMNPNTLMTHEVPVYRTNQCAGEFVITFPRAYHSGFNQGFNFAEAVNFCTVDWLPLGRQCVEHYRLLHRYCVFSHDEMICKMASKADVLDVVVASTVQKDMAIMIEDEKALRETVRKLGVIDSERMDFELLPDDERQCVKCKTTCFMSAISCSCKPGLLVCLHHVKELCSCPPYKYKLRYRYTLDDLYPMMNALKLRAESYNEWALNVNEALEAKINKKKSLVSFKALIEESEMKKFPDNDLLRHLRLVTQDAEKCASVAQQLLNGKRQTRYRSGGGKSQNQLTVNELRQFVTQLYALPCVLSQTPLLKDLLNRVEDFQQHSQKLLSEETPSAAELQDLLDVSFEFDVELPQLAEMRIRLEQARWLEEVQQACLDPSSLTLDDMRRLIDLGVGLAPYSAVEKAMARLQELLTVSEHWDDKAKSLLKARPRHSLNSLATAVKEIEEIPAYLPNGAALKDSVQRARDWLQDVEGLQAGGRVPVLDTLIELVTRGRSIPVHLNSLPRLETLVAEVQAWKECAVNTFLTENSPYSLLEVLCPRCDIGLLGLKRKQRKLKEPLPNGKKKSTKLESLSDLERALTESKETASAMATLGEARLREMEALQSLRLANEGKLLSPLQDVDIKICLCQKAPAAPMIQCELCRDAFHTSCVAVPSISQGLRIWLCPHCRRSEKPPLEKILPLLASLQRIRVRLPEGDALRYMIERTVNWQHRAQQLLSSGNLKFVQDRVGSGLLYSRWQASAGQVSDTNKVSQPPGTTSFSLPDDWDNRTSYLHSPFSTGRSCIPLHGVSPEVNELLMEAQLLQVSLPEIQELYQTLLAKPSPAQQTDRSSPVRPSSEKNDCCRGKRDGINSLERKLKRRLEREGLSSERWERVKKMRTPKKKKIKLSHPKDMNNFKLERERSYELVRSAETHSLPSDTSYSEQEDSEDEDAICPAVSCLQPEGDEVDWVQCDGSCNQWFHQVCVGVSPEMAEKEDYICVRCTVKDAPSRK
Test: Primary screen for KDM5B Histone Demethylases FDH-coupled qHTS; also: nearly all actives have a fitted effect of over 70% in size; as to activity change, negative = inhibition: 0% is about no effect
Details: FDH-coupled NADH fluorescence (FDH is formaldehyde dehydrogenase); activity change, negative = inhibition: at 57.7 µM (top of the series) unless noted
Procedure, shortened: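 Here, H3K4me3 peptide (12.5 µM in substrate mix) is demethylated by KDM5BΔAP, 200 nM final, after 10 min compound exposure. Formaldehyde product is coupled through FDH (0.25 U/mL in mix) to NADH fluorescence; 30-min ΔRFU feeds dose-response curves.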
Potency is read from the fitted curve at half-maximal effect; tags tell the direction and shape of the fitted curve.

SMILES | Potency | activity change, negative = inhibition
Cc1nc(N2CCN(C)CC2)c(C#N)c2c1CCCC2 | inconclusive: 31.6 µM [inhibitor, single point] | –
COc1ccc2c(c1)c(C(=O)N/N=C/c1cccc(Br)c1)c(C)n2C | inconclusive: 39.8 µM [inhibitor, single point] | –
Cc1ccc(C(=O)/C=C/c2ccc(-c3cc(Cl)ccc3Cl)o2)cc1 | inactive | –
CCCc1cc(C(=O)NC(C)c2ccccn2)sc1C (stereo not drawn) | inactive | –
Cc1ccc(-c2cc(C(=O)O)c3ccccc3n2)cc1 | inconclusive: 25.1 µM [inhibitor, partial curve, poor fit] | –
Cc1ccc2c(c1)N(CC(=O)N1[C@@H]3CC[C@H]1CNC(=O)C3)C(=O)CO2 | inconclusive: 31.6 µM [inhibitor, partial curve, poor fit] | –
FC(F)(F)c1ccccc1CNCc1ccccc1Cl | inactive | –
CC(C)c1noc(-c2cccn3c(CNC(=O)COc4ccc(F)cc4)nnc23)n1 | inconclusive: 17.8 µM [inhibitor, partial curve] | –
COc1ccc(-c2ccnc(N[C@H]3CO[C@H]4[C@@H]3OC[C@@H]4NC(=O)c3ccc(C)cc3)n2)cc1 | inconclusive: 22.4 µM [inhibitor, single point] | –
Cc1cc(C)cc(N(CC(=O)NCCc2ccc(Cl)cc2)S(=O)(=O)c2c(C)noc2C)c1 | inconclusive: 31.6 µM [inhibitor, partial curve, poor fit] | –
COC[C@@H]1CN(c2cnccn2)C[C@H]1C(=O)NCc1ccco1 | active: 25.1 µM | –
Cc1ccc2c(c1)c1c(c(=O)n(-c3ccccc3)c(=O)n1Cc1ccccc1C)n2C | – | inconclusive: -40.5% [inhibitor]
Cc1cccc(NC(=O)c2ccc3c(c2)NC(=O)C2CCCN32)c1 (stereo not drawn) | inconclusive: 31.6 µM [inhibitor, single point] | –
O=C(N1CC(Oc2ccc(-c3nc(-c4ccccc4)no3)cc2)C1)C1(c2ccccc2)CC1 | inconclusive: 3.98 µM [inhibitor, partial curve, poor fit] | –
Cc1noc(C)c1-c1cc2cc(CNC3CC3)oc2c(NC2CCN(C)CC2)n1 | inconclusive: 28.2 µM [inhibitor, partial curve] | –
COC(=O)[C@@H]1Cc2ncn(Cc3ccc(Cl)cc3)c2CN1C(=O)c1ccccc1 | inconclusive: 35.5 µM [inhibitor, single point] | –
Cc1oc2cc3oc(=O)c(CCC(=O)NCCc4ccccc4F)c(C)c3cc2c1C | inconclusive: 1.41 µM [inhibitor, full curve, poor fit] | –
COc1ccc(-c2nc3c(c(SCc4ccc(Br)cc4)n2)Cc2c(CO)cnc(C)c2O3)cc1 | inconclusive: 15.8 µM [inhibitor, partial curve, poor fit] | –
Clc1ccc(N/N=C/c2cccc(/C=N/Nc3ccc(Cl)c(Cl)c3)c2)cc1Cl | inactive | –
COc1ccc(Cl)cc1-c1ccc2c(c1)C(=O)N1CC[C@H](N)C[C@H]1C(=O)N2 | inconclusive: 39.8 µM [inhibitor, partial curve, poor fit] | –
COc1ccc2cc(/C=C/C(=O)c3cccs3)ccc2c1 | inconclusive: 31.6 µM [inhibitor, single point] | –
Cc1ccc(C(=O)NCC(=O)O)cc1C | inactive | –
O=C1CCN(Cc2cccnc2)CCCC(C(=O)N2CCOCC2)CCN1 (stereo not drawn) | inconclusive: 22.4 µM [inhibitor, partial curve, poor fit] | –

SMILES | Potency | activity change, negative = inhibition
CC(C)CNC(=O)NC(=O)COC(=O)c1cc(-c2cccs2)nc2ccccc12 | inconclusive: 1.78 µM [inhibitor, full curve, poor fit] | –
CC(C)c1nn(C)c(Cl)c1CNCc1ccc2c(c1)OCCO2 | inactive | –
COc1ccc(-c2cc(N3CCC(NC(=O)c4cc(F)ccc4Cl)C3)n[nH]2)cc1 (stereo not drawn) | inconclusive: 39.8 µM [inhibitor, single point] | –
O=C(O)CCC(=O)N1Cc2ccccc2CC2(CCCN2CC2CCNC2)C1 (stereo not drawn) | inconclusive: 89.1 µM [inhibitor, partial curve] | –
CC(NC(=O)c1nccnc1N)c1ccc2ccccc2c1 (stereo not drawn) | inconclusive: 28.2 µM [inhibitor, partial curve, poor fit] | –
CC(=O)c1ccc(N2CCN(C(=O)c3nn(Cc4ccccc4)c(=O)c4ccccc34)CC2)c(F)c1 | inactive | –
O=C1NCCC[C@@H]1NC(=O)[C@@H]1CN(C(=O)c2cccc(F)c2)CCN1C(=O)C1CCNCC1 | inactive | –
CNS(=O)(=O)c1cn(CC(=O)N2CCN(c3ccc(C(C)=O)cc3)CC2)cc1S(=O)(=O)NC | inconclusive: 14.1 µM [inhibitor, partial curve, poor fit] | –
CCOC(=O)C1C(=O)C=C(c2ccc(C)cc2)CC1c1ccc(Cl)cc1 (stereo not drawn) | inactive | –
CCc1cc2c(=O)c(-c3nncn3-c3ccccc3)coc2cc1OCC(=O)NCC(=O)O | inactive | –
COc1ccc(N2Cc3c(NC4CCCCCC4)ncnc3N(C)CC2=O)cc1 | inconclusive: 28.2 µM [inhibitor, partial curve, poor fit] | –
Cc1ccc(-n2nc(C)c([C@@H]3C=C[C@@H](NC(=O)NCc4ccccc4)C3)c2C)cc1Cl | inactive | –
COc1ccccc1CN1Cc2cc(NC(=O)c3ccc(C#N)cc3)ccc2OC(C)C1=O (stereo not drawn) | inconclusive: 39.8 µM [inhibitor, partial curve, poor fit] | –
CC(=O)N1c2ccc(S(=O)(=O)Nc3ccc(C)c(Cl)c3)cc2CC1C (stereo not drawn) | – | inconclusive: -41.1% [inhibitor]
COc1ccc(N2CCN(S(=O)(=O)c3ccc(-c4coc(C)n4)cc3)CC2)cc1 | inconclusive: 15.8 µM [inhibitor, partial curve, poor fit] | –
COc1cccc(NC(=O)CCc2ncc(-c3ccc(Cl)cc3)o2)c1 | inactive | –
COc1ccc(-c2noc([C@@H]3CCCN3C(=O)c3cc(Cl)ccc3F)n2)cc1OC | inconclusive: 28.2 µM [inhibitor, single point] | –
c1ccc(-c2cc(-c3ccccc3)nc(-c3ccccc3)c2)cc1 | inactive | –
CCOc1cc(/C=C(/C#N)c2nc3ccccc3[nH]2)ccc1OC | inconclusive: 10 µM [inhibitor, partial curve, poor fit] | –
Cc1cc(C)cc(NC(=O)Cn2c(-n3nc(C)cc3C)nc(-c3ccccc3)cc2=O)c1 | inconclusive: 25.1 µM [inhibitor, partial curve, poor fit] | –
COc1cc(OC)c(OC)cc1CNCc1ccco1 | inconclusive: 39.8 µM [inhibitor, single point] | –
Cc1nc(CC(=O)NCc2ccccn2)cs1 | inactive | –
Cc1cccc2nc(-c3ccccn3)c(Nc3ccc(F)cc3)n12 | inconclusive: 50.1 µM [inhibitor, single point] | –

SMILES | Potency | activity change, negative = inhibition
O=C(COC(=O)c1ccc(F)cc1[N+](=O)[O-])c1ccc(Br)cc1 | inactive | –
CN1CCN(c2ccc(-c3nccc4c(=O)cc(N(C)c5ccccc5)oc34)cn2)CC1 | inconclusive: 28.2 µM [inhibitor, single point] | –
Cc1cc2c(cc1S(=O)(=O)Nc1cccc(Cl)c1C)n(C)c(=O)c(=O)n2C | inconclusive: 28.2 µM [inhibitor, single point] | –
Cc1ccc(C(=O)Nc2ccc(-c3nc4ccccc4o3)cc2)cc1 | inactive | –
CNC(=S)NNC(=O)C(=O)NNC(=S)NC | inconclusive: 12.6 µM [inhibitor, partial curve, poor fit] | –
O=C(CC1CCCC1)N1CC2CC(C1)[C@H]1CCCC(=O)N1C2 (stereo partly drawn) | inactive | –
O=C(NCCCN1CCOCC1)C(=O)N/N=C/c1cccc2ccccc12 | inactive | –
COc1cccc(CN(C)CC(C#N)CCC#N)c1OC (stereo not drawn) | inactive | –
CC(CNC(=O)c1cnn(-c2ccc(F)cc2)c1-n1cccc1)c1ccccc1 (stereo not drawn) | inconclusive: 3.98 µM [inhibitor, partial curve, poor fit] | –
N#Cc1cccc(NC(=O)Cn2c(=O)c3c(ncn3C3CCCC3)n(Cc3ccccc3)c2=O)c1 | inactive | –
COc1ccccc1-c1cc2c(nc1OC)nc(CC1CC1)n2C | active: 39.8 µM | –
CCc1cccc2c(C(CC(=O)NCCOC)c3ccc(OC)cc3OC)c[nH]c12 (stereo not drawn) | inconclusive: 15.8 µM [inhibitor, partial curve] | –
CC1(C(=O)NCc2ccncc2)CCCc2cnc(NCc3ccccc3)nc21 (stereo not drawn) | active: 35.5 µM | –
O=C(Nc1ccc(F)c(Cl)c1)Nc1c[nH]c(=O)[nH]c1=O | inconclusive: 15.8 µM [inhibitor, partial curve, poor fit] | –
CSc1ccccc1-c1nnc(NC(=O)c2ccc3c(c2)OCCO3)o1 | inconclusive: 3.55 µM [inhibitor, partial curve, poor fit] | –
COc1ccccc1CC(=O)Nc1cccn2nc(C(C)C)nc12 | inactive | –
COCCNC(=O)c1cc(C2CC2)nc2onc(C3CCNC3)c12 (stereo not drawn) | active: 79.4 µM | –
CCOC(=O)c1ccc(OCC(O)CNCCCn2nc(C)cc2C)cc1 (stereo not drawn) | inactive | –
Cc1cc(F)ccc1NC(=O)c1cc2n(n1)CC(c1ccc(Br)cc1)OC2 (stereo not drawn) | inconclusive: 22.4 µM [inhibitor, partial curve, poor fit] | –
COc1ccccc1N1CCN(c2ccc(=O)n(CC(=O)NCc3ccc(F)cc3)n2)CC1 | inconclusive: 14.1 µM [inhibitor, partial curve, poor fit] | –
Cc1cccc(C(=O)NNC(=S)NC(=O)/C=C/c2cccs2)c1 | inconclusive: 39.8 µM [inhibitor, single point] | –
Cc1ccc(S(=O)(=O)N(Cc2cc3ccccc3[nH]c2=O)c2cccc(C)c2)cc1 | inconclusive: 31.6 µM [inhibitor, partial curve, poor fit] | –
